# Data taken from the supplement of paper PMC11417369.
# The list shows a part of the results.
# System: PF3D7_0420300 AP2 domain 1 (GST-tagged)
# Assay: gcPBM binding intensity (ln(normalized median fluorescence intensity)); higher = stronger DNA binding
# Method in brief: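 Alexa488 anti-GST antibody, scanned at 488 nm, detected GST-tagged P. falciparum DNA-binding domains that had been expressed in E. coli and incubated for 1 h on an Agilent 4 × 180k array. The array carried primer-extended double-stranded 36-bp intergenic genomic probes and negative controls. Binding intensity is the highest Masliner-normalised natural-log median intensity across replicate spots of either orientation of each probe.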
row,Sequence,gcPBM binding intensity (ln)
1,TATGCACAGAAACACACACACACAACCAAAAAATAA [CACACA_site5425],10.2
2,TTTTTATTTATATGTATACACACTTTAATTAAAAGT [CACACA_site2525],9.31
3,TGTTATATATAAATTTGTACACATAAATATTTTTAC [XGTACX_site5873],9.25
4,AATAAAAAAAAATGCACACATATATATATATATATA [CACACA_site2421],9.26
5,CAGAATATATTCTATACATGCAATAGGAAATGTAGC [TGCATGCA_site110],9.54
6,ATTGCGTGATAATAATGTACAAAAAGTAATTTATAT [XGTACX_site8339],9.2
7,AATATATAATTTTTAACACACAAAAAAAAAAAAAAT [CACACA_site3581],9.64
8,AAAAAAAAAAAAAAAACACACACATATAATATATTT [CACACA_site8369],9.74
9,TCATTCTAAATATAAACACACATAAATATATACATT [CACACA_site3354],9.54
10,GGTACGTATTTCAATGCATGTCCATGTACATATAAA [TGCATGCA_site208],9.3
11,CATACGTTCTAATATATACACACCTGGTATTAATTA [CACACA_site2221],9.44
12,CTATAATGTTTCTTTCAACACACAAAAAATGAACAC [CACACA_site8438],9.56
13,TAAAAAATTTTCGCGTGTACGCAAGAAAAAAAAAAT [XGTACX_site3058],9.15
14,TTTTTGCCATATTACACACACACATGGAAACCCCCT [CACACA_site4994],10.1
15,TATATATTTAGTTAGTGTACAAGTTATTTAGTAGTT [XGTACX_site5133],9.22
16,AAAAAAATAATGTATATATAAATTTATTTACATATG [GTGCAC_negctrl_site107],9.07
17,TCTTTTAACAAATAATAAGCTAATTTATATTATTAT [GTGCAC_negctrl_site655],8.9
18,TAAAAAATAAGATATACACACATATATTTATTTATA [CACACA_site7158],9.33
19,CAAATAAATTAAAGGTGTACTTTTATAGTTACGACA [XGTACX_site3926],9.13

row,Sequence,gcPBM binding intensity (ln)
1,CATATTTTCTTGTGTACACATTTATTTTATACTATA [CACACA_site6032],9.74
2,TCAATAAGATTATAAAGTACTTTTGAAGATATTATA [XGTACX_site7489],8.87
3,TTTCTTATTTTTTTCACACACTAAACATTTCAAATG [CACACA_site5259],9.35
4,AAATAAATAAATAAATGTACACATATATATATATAT [XGTACX_site7787],9.27
5,AAATATTTAAATATTATGTATGATTATATATATATA [CACACA_negctrl_site590],9.15
6,AAAGAGAACATAAGTACACACATGTTCTTTTAGTAA [CACACA_site2824],9.31
7,AAAGTAAAAACACATACATGCATATACACATATAAC [TGCATGCA_site341],9.66
8,AAAAAAAAAAAAAAAACACACAAAAGCAAGAAAAAC [CACACA_site3198],10.1
9,ATAAATATGTATTGCTGTACATATATATAAATTATC [XGTACX_site8411],9.12
10,AATAGGAAAACCTATACACACTTTAAAAAAAATATA [CACACA_site4977],9.3
11,TACATATATGATAAAAGTACATATAAATATACATAA [XGTACX_site3804],9.37
12,GAAATAAAAGATGGTTGTACACCGTTTTCTCATATA [XGTACX_site5368],9.21
13,TATATGAATAAACATTGTACGTAAATATTAACTATC [XGTACX_site543],9.41
14,AAGATGATAAAATATGTACACACAGTTTATACATTT [CACACA_site9341],9.38
15,TTATATATTAAGAAATGTACGAAAAAAAAAATTATA [XGTACX_site3893],9.2
16,CGCATAAAGACAAGAACACACATATAGATTGTAGTA [CACACA_site3693],9.32
17,AAAAAAAATTATATATGTACTTATTAATCCTTTTAT [XGTACX_site1387],9.04
18,AATTATTTATTGAGAGTGCAACAAATTATTTCAAAT [GTGCAC_site9461],9.11
19,ACATTTTAAATACGATGTACTTGAGTTTTTTTTAAA [XGTACX_site5833],9.11

row,Sequence,gcPBM binding intensity (ln)
1,TTTTTTTGCATGAGCAATAAAAAAGGCTTGTTCAAA [CACACA_negctrl_site1615],8.45
2,GTAGATATTTATTGAGTGCATGTTATAAAGGGAAAA [GTGCAC_site9481],9.22
3,TTTTTATTTTTTTACAGTACATAAAATAAATAAATA [XGTACX_site6596],8.84
4,TTTTTTTTATGGAAACGTACATACATACATTAAAGA [XGTACX_site7401],8.91
5,TATTTATATATTTATGCATGTTATAGGCAAAAATGT [TGCATGCA_site397],9.08
6,TATATTGATGATGATAGTACGTATGAATACAAAAAA [XGTACX_site4],9.2
7,CATAATAAGTATAACGTTAGTTACAAACAGCTTGTT [CACACA_negctrl_site937],9.39
8,TATTATTCAAAATTTGTGCACAAAATTAAAGGAACA,9.25
9,TTTTTAAATAAATGTTTTTATTATATACATATCAAT [TGCATGCA_negctrl_site423],9.04
10,AAAATAATGTATATAGTGCAAATGAAAACGAAAAAA [GTGCAC_site9455],9.77
11,TTGGTGATATTTTTCTCACACATTTACCAGAGATGT [CACACA_site4684],9.22
12,TTTGTTTTTTTGAGAGTGCAATATATATAAAAAGGG [GTGCAC_site9691],9.02
13,TATAAAATTCTGACTTGTACATGTGAAAAATAATTA [XGTACX_site1396],9.06
14,TATATATATATATAATGTACACATTTTTATAACTAT [XGTACX_site5714],9.16
15,AAAATACAATTTCTAGCACACAAAATATTATTATAA [CACACA_site9056],9.32
16,GCGTTGTTTTTAAAAAGTACATTTTTATATAAGTTA [XGTACX_site8780],9.22
17,AAAGATGGAAAAAAAAATTTGTGTGTTGAAAGATAT [GTGCAC_negctrl_site19],9.56
18,CTTAATATATGTGGCACACATGTGGAGTCCTATTAA [CACACA_site4281],9.33
